Test results: PubChem BioAssay AID463173 (ICCB-Longwood Screening Facility, Harvard Medical School, 2010)
The whole screen tested about 52,000 compounds, of which about 4,300 (8.3%) were called active. Cut-off read from the data, not from the text of the source: active = survival mostly below about 52% (no sharp cut-off); inactive = mostly above about 56%. The list shows a part of the results.

Each molecule was assayed on DeltatarO mutant (assay: S. aureus survival, RN4220 and DeltatarO strains – OD600, teichoic acid synthesis inhibitors, primary screen (AID 463173)). Conditions: S. aureus RN4220 wild type/DeltatarO growth, OD600, 18 h, hits give low values, screened at 18.75 µg/mL (by protocol).

SMILES | survival
O=C(NCc1ccco1)c1ccc(Cn2c(SCc3ccccc3)nc3cccnc32)cc1 | inactive: 69%
COc1cc(OC)c(NC(=O)CCS(=O)(=O)c2ccc3c(c2)oc(=O)n3C)cc1Cl | inactive: 78%
COc1ccc(NC(=O)CSC2=Nc3ccccc3C3=NC(CC(=O)NCCc4ccccc4)C(=O)N23)cc1 (stereo not drawn) | inactive: 74%
O=C(NC1CCCCC1)N1CCCC(c2nc(-c3ccc(Cl)cc3)no2)C1 (stereo not drawn) | inactive: 97%
CC(C)(C)C1CCc2c(sc(NC(=O)c3cccc(Cl)c3)c2C(=O)NCc2ccco2)C1 (stereo not drawn) | inactive: 113%
CC(=O)c1ccc(NC(=O)C2CCN(c3nnc(C)c4c(C)n(-c5ccccc5)nc34)CC2)cc1 | inactive: 74%
Cc1ccc(-c2cc(C(=O)N3CCN(S(=O)(=O)c4ccc(Br)cc4)CC3)[nH]n2)c(C)c1 | inactive: 75%
CC(C)OCCCn1c(=O)c2ccccc2n2c(-c3ccccc3)nnc12 | inactive: 105%
CCc1nn2c(=O)cc(COC(=O)Cc3ccccc3)nc2s1 | inactive: 72%
CCc1ccc(-n2nc(CO)c(C(=O)NCCOC)n2)cc1 | inactive: 56%
CC(C(=O)NCC1(c2ccccc2)CCOCC1)N1CCCCC1 (stereo not drawn) | inactive: 74%
COc1ccc(OC)c(S(=O)(=O)N2CCC(n3c(C)nc4cccnc43)CC2)c1 | inactive: 73%
CN(C(=O)CC(=O)Nc1ccc2nc3n(c(=O)c2c1)CCCCC3)c1ccccc1F | inactive: 91%
Cc1scc(CN2CCN(c3ccccc3F)CC2)c1C | inactive: 64%
CC(C)(C)C(=O)Nc1ccccc1C(=O)Nc1nccs1 | inactive: 86%
CCc1ccc(CNC(=O)C2COc3ccc(OC)cc3C2)cc1 (stereo not drawn) | inactive: 67%
CCOC(=O)c1c(C)sc(-c2c(-c3ccccc3)[nH]c3[nH]c(=O)[nH]c(=O)c23)c1O | inactive: 100%
COc1ccc(-c2noc(-c3ccc(N4CCOCC4)c([N+](=O)[O-])c3)n2)cc1 | inactive: 46%
CCC(=O)n1nc(-c2ccccc2)nc1N | inactive: 104%
CC1=C(C(=O)Nc2ccccc2C)C(c2cccs2)n2nc(SCc3ccccc3)nc2N1 (stereo not drawn) | inactive: 70%

SMILES | survival
CCc1ccc(S(=O)(=O)NCc2ccc3c(c2)CCN3C(=O)c2ccc(C)cc2)cc1 | inactive: 71%
O=C(CSc1ccccn1)Nc1cccc(F)c1 | inactive: 85%
Cc1ccc(CNC(=O)Nc2cc(C(=O)NCc3cccc(F)c3)ccc2N2CCCC2)cc1 | inactive: 120%
CC(=O)N1CCc2cc(Br)cc(S(=O)(=O)N3CCC(C(=O)Nc4cccc(C)c4C)CC3)c21 | active: 75%
COC(=O)c1nnn(CC(=O)NC(=O)Nc2ccc(F)cc2)c1C(=O)OC | inactive: 89%
O=C(Nc1ccc(S(=O)(=O)N2CCC(c3nc4ccccc4s3)CC2)cc1)c1ccccc1 | inactive: 104%
CCCCn1c(CNC(=O)C23CC4CC(CC(C4)C2)C3)nnc1SCC(=O)Nc1ccc(C)cc1 | active: 36%
COCCSc1nc2c([nH]c3ccccc32)c(=O)n1-c1ccc(OC)c(OC)c1 | inactive: 120%
CC1CCCCN1Cc1c(O)ccc2c(=O)c(-c3ccccc3Cl)c(C(F)(F)F)oc12 (stereo not drawn) | inactive: 55%
COc1ccc(Nc2c3c(nc4ccccc24)CCC3)cc1Cl | inactive: 59%
Cc1cccc(NC(=O)Cn2c(=O)n(Cc3ccc4c(c3)OCO4)c(=O)c3oc4ccccc4c32)c1C | inactive: 89%
Fc1ccc(CNc2ccc(N3CCCC3)cc2)cc1 | inactive: 97%
Cc1ccc(CN(C(=O)COc2ccccc2Cl)c2ccccn2)o1 | inactive: 59%
Cc1ccc(CNS(=O)(=O)c2ccc(C(=O)N(C)C)s2)cc1 | active: -4%
CCOc1ccc(NC(=O)Cn2c(=O)n(Cc3ccc4c(c3)OCO4)c(=O)c3ccc(C(=O)NC4CCCCC4)cc32)cc1 | inactive: 79%
CC(C)(C)C1CCc2c(sc(NC(=O)C3c4ccccc4Oc4ccccc43)c2C(N)=O)C1 (stereo not drawn) | inactive: 84%
CCn1cc(S(=O)(=O)c2cc(C)cc(C)c2)c(=O)c2cc(F)c(N3CCCCC3)cc21 | inactive: 86%
COc1ccc(OC)c(CNC(=O)Nc2cn(CC(C)C)c(=O)c3ccccc23)c1 | inactive: 69%
CCC(=O)N1c2ccc(S(=O)(=O)CCC(=O)NCc3ccccc3OC)cc2CC1C (stereo not drawn) | inactive: 90%
CCOc1ccc(CCNC(=O)c2cc(=O)[nH]c3ccc(S(=O)(=O)N4CCCCC4C)cc23)cc1OCC (stereo not drawn) | inactive: 83%

SMILES | survival
Fc1ccccc1-c1nc(N2CCN(c3cccc(Cl)c3)CC2)c2ccccc2n1 | inactive: 57%
COCCNC(=O)Cn1ccc2cc(S(=O)(=O)N3CCCCCC3)ccc21 | inactive: 73%
CC(C)c1ccccc1C=NCC(=O)O | inactive: 73%
Cc1ccc(-c2noc(CCC(=O)N(C)c3ccccc3F)n2)cc1 | active: 38%
CCC(Sc1nc(N)cc(=O)[nH]1)C(=O)NC(C)c1ccccc1 (stereo not drawn) | inactive: 94%
Cc1ccc(NC(=O)CNCCCN2CCOCC2)cc1Br | inactive: 85%
CCC(C(=O)OC)n1c(-c2ccccc2)nc2ccccc2c1=O (stereo not drawn) | inactive: 90%
COc1ccccc1NC(=O)Cn1c(CN2CCCCC2)nc2ccccc2c1=O | inactive: 88%
CCc1ccc(-c2nnn(CC#N)n2)cc1 | inactive: 111%
Cc1ccc(C2CC(=O)Nc3cc4c(cc32)OCCO4)cc1Br (stereo not drawn) | inactive: 65%
Cc1nc2cc(-c3cccc(F)c3)nn2c(C)c1CCC(=O)NCCc1ccccc1 | inactive: 97%
COc1ccc(N2CCN(S(=O)(=O)c3ccc4c(c3)C(C(C)C)C(=O)N4)CC2)cc1 (stereo not drawn) | inactive: 125%
CCOC(=O)COc1ccc(-c2nnn(CC(=O)Nc3ccccc3)n2)cc1 | inactive: 94%
COC(=O)CSc1nnc(COc2cccc3ccccc23)o1 | active: 46%
N#Cc1cn(-c2ccccc2)nc1-c1cccnc1 | inactive: 73%
Cc1cc(OCC(=O)N(C)c2ccccc2)cc(C)c1Cl | inactive: 104%
Cc1ccc(C)c(N2CCN(C(=O)c3cc(C)nc4c3c(C)nn4-c3ccccc3)CC2)c1 | inactive: 126%
COc1ccc(CCNC(=O)C2COc3ccccc3O2)cc1 (stereo not drawn) | inactive: 89%
